Results taken from the supplement of paper PMC10338343.
± gives the standard deviation. Only a part is listed here, and it is no random draw.

Tested on: MIWI (PIWIL1) piRISC loaded with L1MC piRNA (30 nt)
Experiment: pre-steady-state target cleavage rate (min^-1); MIWI and MILI are mouse PIWI proteins and EfPiwi is from a freshwater sponge; tags in brackets are library labels; higher = faster piRNA-guided slicing of the target
Conditions: guide: L1MC piRNA 5'p-UAACUAAAUACUAUGCAAGCUGUAGGUCCU
How it was run: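 Cleave-'n-Seq: a transcribed, DNA-blocked target RNA library (0.1 nM) was mixed with 1 nM active affinity-purified piRISC carrying one synthetic guide, with or without 500 nM GTSF1 partner protein, in HEPES–potassium acetate buffer at 33 °C for 0–8 or 0–960 min. Uncleaved targets were sequenced and normalised to depth and to weakly complementary targets. Three trials were pooled, and k3 was capped at 0.0001 min^-1. The pre-steady-state cleavage rate came from a burst-and-steady-state fit.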

[1] = auxiliary factor: 500 nM mouse GTSF1
[2] = auxiliary factor: none (no GTSF1)

Row | Sequence | pre-steady-state target cleavage rate [1] | pre-steady-state target cleavage rate [2]
1 | UCCUCCUACUGCUUGCAUACUAUUUAGUUA | 0.367 ± 0.017 | 0.0335 ± 0.0063
2 | UCCUGGUACAGCUCGCAUAGUAUUUAGUUA | 0.768 ± 0.043 | 0.0419 ± 0.0066
3 | UCCACCUACAGCAUGCAUAGUAUAUAGUUA | 0.61 ± 0.048 | 0.0103 ± 0.0032
4 | AGGACCUACAGCUUGCAUAGUAUUUAGAUA | 0.593 ± 0.054 | 0.0587 ± 0.013
5 | AGGUCCUACAGCUUGCAUAGUAUUAAGUUA | 0.381 ± 0.034 | 0.054 ± 0.013
6 | UCCUCCUACAGGUUGCAUAGUAUAUAGUUA | 0.58 ± 0.049 | 0.0122 ± 0.0033
7 | UCCUGGAAGAGCUUGCAUUGUAUUUAGUUA | 0.6 ± 0.041 | 0.0219 ± 0.007
8 | UCCUGGUACAGCUUGUAUAGUAUUUAGUUA | 0.869 ± 0.041 | 0.0347 ± 0.0088
9 | AGGACCUACAGCUAGCAUAGUAUUAAGUUA | 0.827 ± 0.068 | 0.0102 ± 0.0032
10 | UCCUGGUUGAGCUUGCAUAGUAUUUAGUAA | 0.54 ± 0.047 | 0.0223 ± 0.0069
11 | UCGACCUACCGCUUGCAUAGUAUUUAGUUA | 1.64 ± 0.069 | 0.0745 ± 0.015
12 | UCCUGGAUGUGCUUGCAUAGUAUUUAGAAA | 0.0621 ± 0.01 | 0.00508 ± 0.0024
13 | UCCUGCUACAGCUAGCAUAGUAUAUAGUUA | 0.535 ± 0.053 | 0.0057 ± 0.0026
14 | UCCUGGAUGUGCUUGGAUAGUAUAUAGUUA | 0.0799 ± 0.017 | 0.0106 ± 0.0049
15 | AGGACCAUCAGCUUGCAUAGUAUUUAGUUA | 1.3 ± 0.048 | 0.0926 ± 0.017
16 | UGGACCUACAGGUUGCAUAGUAUAUAGUUA | 0.549 ± 0.056 | 0.0198 ± 0.0053
17 | UCCUGGUACAGCUUGCUUACUAUUUAGUUA | 0.236 ± 0.033 | 0.0131 ± 0.004
18 | UCCUGCUACAGCUAGCAUUGUAUUUAGUUA | 0.844 ± 0.057 | 0.0073 ± 0.0027
19 | UCCUGGAUGAGCUUGCACAGUAUUUAGUUA | 0.983 ± 0.03 | 0.0642 ± 0.014
20 | UGGACCUACAGCUUGCAUAGUAUUUAGGUA | 0.376 ± 0.033 | 0.0312 ± 0.0059

Row | Sequence | pre-steady-state target cleavage rate [1] | pre-steady-state target cleavage rate [2]
21 | AGGACCUACAGCUUGCAUAGUAAUUAGAUA | 0.417 ± 0.057 | 0.0101 ± 0.0036
22 | UCCUGGUACACCUUGCAUAGAAUUUAGUUA | 0.201 ± 0.062 | 0.00345 ± 0.0031
23 | UCCUGCUACAGCUUGCAUAGUUUUUAGAUA | 0.164 ± 0.028 | 0.00613 ± 0.0022
24 | UCCUCCUACUGCUUGCAAAGUAUUUAGUUA | 0.824 ± 0.027 | 0.0288 ± 0.0055
25 | UCCUGGAUGAGCUUGCAUACUAUAUAGUUA | 0.0617 ± 0.013 | 0.0108 ± 0.003
26 | UCCACCUACAGCUUGCAAAGUAUUUACAAA | 0.225 ± 0.037 | 0.00369 ± 0.0027
27 | UCCUGCUACUGCUUGCAUAGUAUUUACUUA | 0.201 ± 0.022 | 0.0237 ± 0.0035
28 | UCGACCUACUGCUUGCAUAGAAUUUAGUUA | 0.394 ± 0.024 | 0.0169 ± 0.0049
29 | UCCUGCUACACCUUGCAUAGUAUUUAGAAA | 0.395 ± 0.066 | 0.00341 ± 0.0027
30 | UCCUCCUACAGCUUGCAUAGUAUUUAAUUA | 0.299 ± 0.028 | 0.0201 ± 0.0033
31 | UCGACCAUGAGCUUGCAUAGUAUUUACAAA | 0.223 ± 0.037 | 0.00404 ± 0.0019
32 | UCCUGGAACAGCUUGCAUAGUUAAUAGUAA | 0.0309 ± 0.012 | 0.00349 ± 0.0027
33 | UCGACCUUCAGCUUGCAUAGUAUUUACUUA | 0.372 ± 0.035 | 0.0338 ± 0.006
34 | AGCACCUACAGCUUGCAUAGAAUUUAGUUA | 0.713 ± 0.11 | 0.0143 ± 0.0045
35 | UCCUCCUACAGCUUGCAUAGUAAUUACUUA | 0.206 ± 0.031 | 0.01 ± 0.0029
36 | UCCUGGAUCAGCUUGCAUAGUAAUUAGUUA | 0.677 ± 0.034 | 0.0324 ± 0.0094
37 | UCCUGGUACAGCUUGCAUAGUAUAUUAGUUA | 0.709 ± 0.09 | 0.0104 ± 0.0047
38 | UCCUGGAUGUGCUUGCUUAGUAUUUAGUUA | 0.109 ± 0.01 | 0.0193 ± 0.0049
39 | UCCUGGAUGACCUUGCAUAGUAUUUAGUUA | 0.287 ± 0.031 | 0.0116 ± 0.0053
40 | UCCUGGUACAGCUUGCAUAGUAUUUAAUUA | 0.192 ± 0.039 | 0.0179 ± 0.0047

Row | Sequence | pre-steady-state target cleavage rate [1] | pre-steady-state target cleavage rate [2]
41 | AGGUCCUACAGCUUGCAUAGUAUUUAGAUA | 0.383 ± 0.053 | 0.0483 ± 0.012
42 | UCCUGGAUGUGCUUGCAAAGUAUUUACUUA | 0.0584 ± 0.013 | 0.0142 ± 0.0044
43 | UCCUGGAUGAGCUUGCAUUGUAUUUAGAUA | 0.231 ± 0.037 | 0.0107 ± 0.0044
44 | UCCUGGAUCAGCUUGCUUAGUAUUUAGUUA | 1.05 ± 0.06 | 0.0327 ± 0.0082
45 | UCCUCCUACAGCUUGCUUAGUAUUUAGUUA | 1.28 ± 0.06 | 0.0241 ± 0.0053
46 | UCCUGGAUGACCUUGCAUAGUAUUUAGUAA | 0.125 ± 0.021 | 0.00482 ± 0.0019
47 | UGGACCUAGUGCUUGCAUAGUAUUUAGUUA | 0.979 ± 0.061 | 0.0419 ± 0.0095
48 | UCCUGGAUGAGCUUGCAUAGUUUAUAGUUA | 0.0183 ± 0.0061 | 0.00406 ± 0.0023
49 | UCCUGGAACUGCUUGCAUAGUUUUUAGUUA | 0.161 ± 0.015 | 0.0278 ± 0.0086
50 | UCGACCAUCAGCUUGCAUAGUAUUUUCAAA | 0.289 ± 0.034 | 0.00356 ± 0.0023
51 | UCCACCUACAGCUUGCAUAGUAUUCAGUUA | 0.558 ± 0.047 | 0.0211 ± 0.004
52 | UCCUCGUACAGCUUCCAUAGUAUUUAGUUA | 0.0635 ± 0.015 | 0.00365 ± 0.0012
53 | UCUACCUACAGCUUGCAUAGUAUUUAGUUA | 1.4 ± 0.043 | 0.0731 ± 0.013
54 | UCCACCACAGCUUGCAUAGUAUUUAGUUA | 0.992 ± 0.035 | 0.0505 ± 0.0088
55 | UCCUGGAUGUCCUGGCAUAGUAUUUAGUUA | 0.00913 ± 0.0029 | 0.00347 ± 0.0027
56 | UCCUGGAUCAGCUUGCAUAGUAUUUCGUUA | 0.443 ± 0.051 | 0.0217 ± 0.0049
57 | UCCUGGUACAGUCUUGCAUAGUAUUUAGUUA | 0.43 ± 0.048 | 0.0202 ± 0.0051
58 | AGGACCAACAGCUUGCAUAGUAUUUAGAAA | 0.624 ± 0.071 | 0.033 ± 0.012
59 | UGGACCUACAGCUUCGCAUAGUAUUUAGUUA | 1.43 ± 0.1 | 0.0229 ± 0.0062
60 | UCCUCCUACAGCUUGCAUAGUAAAUAGUUA | 0.54 ± 0.037 | 0.00555 ± 0.0024
